Reference: publication PMC7819943, “Rice protein-binding microarrays: a tool to detect cis-acting elements near promoter regions in rice”
This is one part of the list.

molecular target: T1, OsWOX13 (Oryza sativa, UniProt Q5QMM3 1-267); test: protein-binding microarray (RPBM); PBS, 2% BSA, 51.3 ng/ul salmon testes DNA, 50 uM zinc acetate, 200 nM TF, 25 C, 1 h; high values mean tight binding; conditions: protein: recombinant; tags: N-terminal polyhistidine and DsRed monomer fusion (pET32a); label: CyDye5-dUTP incorporated in the synthesized complementary strand; 3' TTTTT single-stranded linker to array surface; dsDNA, one strand shown
T1 sequence: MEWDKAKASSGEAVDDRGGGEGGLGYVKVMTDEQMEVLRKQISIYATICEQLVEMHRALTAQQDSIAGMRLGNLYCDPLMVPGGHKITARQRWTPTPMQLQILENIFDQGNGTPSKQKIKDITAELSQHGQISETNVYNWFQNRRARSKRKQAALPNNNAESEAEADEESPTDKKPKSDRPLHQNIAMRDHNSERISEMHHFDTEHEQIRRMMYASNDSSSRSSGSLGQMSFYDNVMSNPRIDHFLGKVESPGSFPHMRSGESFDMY
Procedure, shortened: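 An Axon 4000B scanner gave the binding signal as per-feature fluorescence intensity in arbitrary units. This followed washing of a custom Agilent array that had been incubated for 1 h at 25 °C with 200 nM protein in PBS, 2% BSA, salmon testes DNA and 50 µM zinc acetate. The proteins were transcription factors fused at the N-terminus to polyhistidine and DsRed, expressed in E. coli BL21-CodonPlus and purified on Ni–NTA.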

Sequence	binding signal
GCCTAATTAATCCGTTATTAGCAAATATTTACTGTAGCACCGGAGTCACCTAGTGCAG	35900 fluorescence intensity (a.u.)
CACATGCAAATTATCGTGCGTCTGTATGTGGCATGCTTGTCGGAGTCACCTAGTGCAG	4230 fluorescence intensity (a.u.)
AGTGAAGGTAATTATCTGCCGCACTGCTGATGCTAGCAAACGGAGTCACCTAGTGCAG	3380 fluorescence intensity (a.u.)
GTGGATTGGACAGACGCGGAGTGAAACCCGGCCCACATAACGGAGTCACCTAGTGCAG	4820 fluorescence intensity (a.u.)
AAAATCTGACAAATTTTGACCGAGAAATCTGTCACCAGATCGGAGTCACCTAGTGCAG	3450 fluorescence intensity (a.u.)
AATGAATCTAGTCAATCCTGCTACTTTACATTGAGGCTGACGGAGTCACCTAGTGCAG	3630 fluorescence intensity (a.u.)
AGCTTCATTAGAAATTAATTAATTATTGTTATTTCTTTACCGGAGTCACCTAGTGCAG	34500 fluorescence intensity (a.u.)
TTGTTAATTTCAACGTTCCAAAGTAATGAATTCATGAGAACGGAGTCACCTAGTGCAG	4140 fluorescence intensity (a.u.)
TGCAGAATTAATGAATTATATTACTACAATCTTTTGCCTTCGGAGTCACCTAGTGCAG	3300 fluorescence intensity (a.u.)
CTTATAAATTATATAAGCCAATAAGCTGACTTAAAAGGATCGGAGTCACCTAGTGCAG	6950 fluorescence intensity (a.u.)
GGATTGATTAAGTTATGATCCAGAGTGAAATTTTAGCTATCGGAGTCACCTAGTGCAG	26600 fluorescence intensity (a.u.)
ATGTGATGTAATGTGATGGAAATTTGGAAGTTTGGAGAAACGGAGTCACCTAGTGCAG	16600 fluorescence intensity (a.u.)
GATGATGATAGGTGTCGGGTGAAAATCTGATCTGCACACTCGGAGTCACCTAGTGCAG	6380 fluorescence intensity (a.u.)
CCAAATTTTAGCATTAACAGTTCTCTATGCATGCCACATTCGGAGTCACCTAGTGCAG	7900 fluorescence intensity (a.u.)
GTCAAACCCAACTTAATTGTACAGTCAAACCGCCGTAATACGGAGTCACCTAGTGCAG	7140 fluorescence intensity (a.u.)
AGATCATTTTCTCATCAATCCAGCCATTCTATCTATACTACGGAGTCACCTAGTGCAG	3740 fluorescence intensity (a.u.)
GATCAATCATGCCGGACACGTGGCGCGTGGCCAGGTGCCACGGAGTCACCTAGTGCAG	3350 fluorescence intensity (a.u.)
TACTTAATTGGGAAACGTGACACTTCATGGTCCGTGAAGGCGGAGTCACCTAGTGCAG	35800 fluorescence intensity (a.u.)
ATTAATTAATGGTTCGTGCGTGCATGTCTATAAATATACTCGGAGTCACCTAGTGCAG	15600 fluorescence intensity (a.u.)
AACTTGCGAAAATTTGACTATCAATTAGCTGGGCGATTGACGGAGTCACCTAGTGCAG	19600 fluorescence intensity (a.u.)
AATTGATGAGTGTTGCTGCTTCGCTTGCACGAAAGTCGAGCGGAGTCACCTAGTGCAG	7830 fluorescence intensity (a.u.)
TAATTAAAAGATTTGTCTCGTAATTTACACGCAATCTATGCGGAGTCACCTAGTGCAG	6670 fluorescence intensity (a.u.)
AGTATATGATTTACTTACTTTGGCTCTGGAGTCCTTGGATCGGAGTCACCTAGTGCAG	12100 fluorescence intensity (a.u.)
AATAACTTCATCAATCTTATATAGACGTGTAATCTTAAAACGGAGTCACCTAGTGCAG	5670 fluorescence intensity (a.u.)
CAAATTGATAGATGTCGCCATATCGATACAATGCATCATACGGAGTCACCTAGTGCAG	43200 fluorescence intensity (a.u.)
ATCCAAATTACAAGATGATAATAATTATTTCTTGGTCTTTCGGAGTCACCTAGTGCAG	20100 fluorescence intensity (a.u.)
ATTTTCATCTATTTGCATTTAATAGGAGCTTCCCTGCACACGGAGTCACCTAGTGCAG	3900 fluorescence intensity (a.u.)

Sequence	binding signal
GACAAAGATTGAGATTTGATAAGAGAGGCCTAAACTGAACCGGAGTCACCTAGTGCAG	14300 fluorescence intensity (a.u.)
ATTTCAAATTTCTACTATCAAATTGGAATATTCACGTAAACGGAGTCACCTAGTGCAG	5110 fluorescence intensity (a.u.)
AGTGACTTGTTTGATTAGATTTGCCGGGACGGGAGGACAACGGAGTCACCTAGTGCAG	26900 fluorescence intensity (a.u.)
TGTGATTATTCACATCATATTCTCCTCTGTAGGGACGGGCCGGAGTCACCTAGTGCAG	26400 fluorescence intensity (a.u.)
TGGTAACCGGCTGATTGCCACCGGTAAATAGAGTGCCGCACGGAGTCACCTAGTGCAG	13500 fluorescence intensity (a.u.)
TGTAAATAGAATAAAATTAAATTTACAATTGGAGAGCCCTCGGAGTCACCTAGTGCAG	29900 fluorescence intensity (a.u.)
AGAATTTAAATTTGCTAATTGAAAACACTATCCCACATCACGGAGTCACCTAGTGCAG	41300 fluorescence intensity (a.u.)
AAAGGATGATTATGTTACCATGGAAGGATAATACTATGGACGGAGTCACCTAGTGCAG	12400 fluorescence intensity (a.u.)
ATAATTGCCCCTGGTTGGACGTGGTAAGTCAAGTCTATTTCGGAGTCACCTAGTGCAG	4310 fluorescence intensity (a.u.)
TTTAAACCATGATTACTGAATTATTGATATGTTCATGTTCCGGAGTCACCTAGTGCAG	30000 fluorescence intensity (a.u.)
AGCCTGATTGGCTTGGCCAAAGGTTCAAATCTTGAAAATACGGAGTCACCTAGTGCAG	16800 fluorescence intensity (a.u.)
GGGCGGGTGATCGCTGGGCGGGTGGGTGAGCGATCACCCACGGAGTCACCTAGTGCAG	3440 fluorescence intensity (a.u.)
CAAGCTAATTGCTAATGCTATATTGCCATGTTGATTTGAACGGAGTCACCTAGTGCAG	30700 fluorescence intensity (a.u.)
CCACGTTAAAATTAGAAGTTTGATTAAAATTAGAAGTTTGCGGAGTCACCTAGTGCAG	5720 fluorescence intensity (a.u.)
GTTAATTAGTCGTACATTAACGATTTTCTCGTTTTATGTGCGGAGTCACCTAGTGCAG	48800 fluorescence intensity (a.u.)
GATTAATTAGACTTAATAAATTTGTCTCACGGTTTACGGACGGAGTCACCTAGTGCAG	40500 fluorescence intensity (a.u.)
AAAACAAATTAAACAGCAACTACATAATGTATTGTCATAGCGGAGTCACCTAGTGCAG	6320 fluorescence intensity (a.u.)
AACTTATAAATTGATTTATAAGTCTAAATAAAGAGGCACCCGGAGTCACCTAGTGCAG	55800 fluorescence intensity (a.u.)
GATCCAGATTATAAATTTATACTATATATCAACTAATATACGGAGTCACCTAGTGCAG	8450 fluorescence intensity (a.u.)
ATGCAATGATTTAGAGAGGCAATGCACAATGATTTAGTTCCGGAGTCACCTAGTGCAG	10700 fluorescence intensity (a.u.)
TGATGAGATTGATCCGATGATCTCCTCTTTAAATTTCTCGCGGAGTCACCTAGTGCAG	19100 fluorescence intensity (a.u.)
TACAAACTATAATTTGCACTATGTCCGTATTAATGAAAATCGGAGTCACCTAGTGCAG	7290 fluorescence intensity (a.u.)
ATATTATAATTATGCGTTTGTTATGTGGGATATTATTTATCGGAGTCACCTAGTGCAG	10100 fluorescence intensity (a.u.)
GAAATAATAATATTAATTGAATGCAGATTAGGTGTAGATACGGAGTCACCTAGTGCAG	30400 fluorescence intensity (a.u.)
ATTAATTAGCTGCCCGCAGACAAGACCCGTGACTTTGGCCCGGAGTCACCTAGTGCAG	23800 fluorescence intensity (a.u.)
CAATAATTGTATCTCTTGTGAGTTGCCACCGGAGGCCCATCGGAGTCACCTAGTGCAG	15900 fluorescence intensity (a.u.)
ATCTATAATTTGTTTTGTTATTAGTCTATATTTAATACTTCGGAGTCACCTAGTGCAG	7820 fluorescence intensity (a.u.)
